# Measurements reported in PubChem BioAssay AID686971 (National Center for Advancing Translational Sciences (NCATS), 2013).
# Screen size: about 360,000 compounds; about 7,500 (2.1%) were called active. About 8% were inconclusive and are not listed. The call rests on the fitted dose curve; in most records, active means well fitted cell-killing curve with a large enough effect; inconclusive means small, poorly fitted or top-dose-only effect, or effect the other way, or another doubt; inactive means no such curve, though single readings can be large or run the other way. The list shows a part of the results, in another mix than the full data.
# Assay: qHTS for induction of synthetic lethality in tumor cells producing 2HG: qHTS for the HT-1080-IDH1KD cell line
# Conditions: HT-1080 IDH1 knockdown viability, ATP luminescence, 48 h; series mostly up to 46.1 µM; activity, negative = toxicity: at the top concentration
# Description: Unbiased genomic sequencing for 22 glioma genomes found recurrent mutation of IDH1 on chromosome 2q33, a gene encoding the cytosolic isoform of IIDH1 associated with the tri-carboxylic acid cycle (TCA) that catalyzes the oxidative decarboxylation of isocitrate, yielding alpha-ketoglutarate and CO2 via NADP+ to NADPH conversion. Subsequent studies confirmed the recurrent IDH mutations in up to 70% of secondary gliomas and in 10% of AML cases. In addition, the somatic mutation of cancer-associated IDH1 is a point mutation resulting in various amino-acid substituents at Arginine132 (IDH1 R132), a key residue found in the enzyme's active site that when mutated, results in the loss-of-function in metabolizing isocitrate but confers a gain-of-function to produce the oncometabolite 2-hydroxyglutarate (2HG). This in effect defines IDH1 as an oncogene and provides an extraordinary opportunity to discover chemical probes against mutant IDH1 that may translate into much needed new therapies for glioma and AML patients.
# This assay aims to perform a synthetic-lethal screen for chemical probes specific for 2HG-producing tumor cells using matched paired cell lines (1) HT-1080-NT fibrosarcoma cell line that overproduces 2HG and (2) HT-1080-IDH1KD cell line which has IDH1 expression knocked-down. Desirable compounds are toxic to the NT fibrosarcoma cell line but not to the IDH1KD cell line. The data in this AID corresponds to the results of the qHTS against the HT-1080 IDH1KD cell line.
# [1] Dang L, Jin S, Su SM. IDH mutations in glioma and acute myeloid leukemia. Trends of Mol Med. 2010; 16(9): 387-97.
# [2] Dang L et al. Cancer-associated IDH1 mutations produce 2-hydroxyglutarate. Nature. 2010; 465(7300):966.
# Molecular Libraries Probe Production Centers Network [MLPCN]
# NIH Chemical Genomics Center [NCGC]
# Assay Submitter (PI): Lenny Dang Ph.D., Agios Pharmaceuticals
# Suspensions of trypsinized HT-1080-IDH1KD cells were dispensed into white, tissue culture-treated, solid 1536-well plates at 5uL/well (750 cells/well final concentration) in RPMI medium supplemented with 5% FBS. Plates were incubated at 37 degrees C for 2 hours, after which 23 nL of compounds or DMSO were delivered to each well using a pin tool. Plates were then incubated at 37 degrees C for an additional 48 hours. CellTiter-Glo viability reagent (Promega) was dispensed into wells (2.5uL/well) and incubated at room temperature for 10 minutes. The plates were measured on a PerkinElmer ViewLux plate reader for luminescent signal (clear filter, 1 sec exp.). DMSO-treated control wells and media-only (no cells) control wells were used to normalize %Activity of identified toxic compounds; DMSO-treated wells corresponded to 0%Activity (100% viability), while media-only controls were used to normalize 100%Activity (0% viability). To minimize variability between cell lines, both HT-1080-NT and HT-1080-IDH1KD lines were dispensed and treated with identical compound series in single batches.
# Concentration-response curves were fitted to the signals arising from the resulting luminescence. The concentration-effect curves were then classified based on curve quality (r2), response magnitude and degree of measured activity, and compounds were subsequently categorized based on their curve class.
# Potency means the concentration at half of the fitted maximal effect.
SMILES,Potency,"activity, negative = toxicity"
Cc1ccc(Cl)cc1NC(=S)N/N=C/c1cccc2ccccc12,active: 2.59 µM,
CC1CC(C)CN(CCCNC(=O)c2cc3c(s2)-c2ccccc2OC3)C1 (stereo not drawn),active: 18.4 µM,
NC(=O)c1cccc(-c2ccnc3c2CC(C(=O)NCCc2ccccc2)O3)c1 (stereo not drawn),active: 7.31 µM,
CCCNC1=C(N(C(C)=O)c2cccc(F)c2)C(=O)c2ccccc2C1=O,active: 4.61 µM,
O=S1(=O)N[C@@H](Cc2ccccc2)COc2cc(N3CCC[C@H]3CO)ccc21,,inactive: -17.1%
Cc1noc(NS(=O)(=O)c2ccc(N/C=C\C(=O)c3ccccc3)cc2)c1C,,inactive: 0%
O=C1NC[C@@H](CCCCN2C[C@H](Cc3ccc(O)cc3)N(CCc3ccc(O)cc3)C(=O)C2=O)N(CC2CCCCC2)C1=O,,inactive: 15.2%
CN(C)CC[C@@H](c1ccc(Br)cc1)c1ccccn1,,inactive: -23%
COc1ccc(-c2nc3cnccn3c2NC2CCCCC2)cc1-c1cccc(Cl)c1,,inactive: -20.6%
C/C=C/Cn1c(SCCCc2ccccc2)nc2c1c(=O)[nH]c(=O)n2C,,inactive: -19.9%
Oc1ccc(C[C@@H]2CNCCN2CCCCC2CCCCC2)cc1,,inactive: -15.7%
O=C1S/C(=C/c2ccc(N3CCOCC3)o2)C(=O)N1Cc1ccc(F)cc1,,inactive: 8.78%
CCCCCCN1C[C@H](n2cc(-c3ccc(F)cc3)nn2)[C@@H](O)C[C@@H]1c1ccc(OC)cc1,,inactive: -3.79%
COC(C/C=C/C(=O)[C@@H](C)OCc1ccccc1)OC,,inactive: -22.5%
C[C@@H]1COc2cccc(N3CCC[C@@H]3CO)c2S(=O)(=O)N1,,inactive: 1.81%
CCOC(=O)c1c(C)[nH]c(C(=O)OC/C(O)=C(\C#N)c2nc3ccccc3[nH]2)c1C,,inactive: -17.8%
CCOc1cc(CNCCO)cc(Br)c1OCc1ccccc1Cl,active: 23.1 µM,
C=CC[C@@H](CC(=O)N[C@H](CO)Cc1ccccc1)C(=O)N[C@@H](COC(=O)[C@@H](CC=C)Cc1ccc(F)cc1)Cc1c[nH]c2ccccc12,,inactive: -8.77%
C=CC[C@@H](Cc1ccc(F)cc1)C(=O)OC[C@H]1CCCN1C(=O)[C@H](CC=C)CC(=O)N(CCO)Cc1ccccc1,,inactive: -17.3%
O=C1NC[C@H](c2ccccc2)OC(=O)[C@H](Cc2ccc(F)cc2)C/C=C\C[C@@H]1CC(=O)N(CCO)Cc1ccccc1,,inactive: 0.0188%
O=C(NCc1ccccc1)C1=C[C@H](c2csc3ccccc23)C[C@H](OCCCCO)O1,,inactive: -12.4%
Cn1ccnc1SCC(=O)c1ccc(Cl)cc1,,inactive: 4.5%

SMILES,Potency,"activity, negative = toxicity"
O=C1N/C(=N/N=C/c2ccccc2O)SC1Cc1ccc(F)cc1 (stereo not drawn),active: 23.1 µM,
CCc1nn(CCCN2CCN(c3cccc(Cl)c3)CC2)c(=O)n1CCOc1ccccc1,,inactive: -21%
O=C(Cn1c[n+](CC(=O)c2ccc([N+](=O)[O-])cc2)cn1)c1ccc([N+](=O)[O-])cc1,,inactive: -3.05%
Oc1cc2c(cc1O)C1c3ccc(O)c(O)c3OCC1(O)C2 (stereo not drawn),,inactive: -28.5%
CN(C)CCC(c1ccc(Br)cc1)c1ccccn1 (stereo not drawn),inactive,
CCCN(CCC)CC(O)Cn1cc(/C=C/C(=O)c2ccccc2)c2ccccc21 (stereo not drawn),active: 14.6 µM,
C=CCOC(=O)C1=C[C@H](c2ccccc2)[C@@H](CCCO)[C@H](OCC)O1,,inactive: 5.5%
C/C(N)=C(/C#N)C(=O)CSc1nnc(-c2ccc(OC(F)F)cc2)o1,,inactive: -3.46%
CC(=O)Nc1nc(C)c(-c2csc(Nc3ccccn3)n2)s1,,inactive: -23.9%
O=C(CSc1ncn[nH]1)N1N=C2/C(=C\c3ccco3)CCCC2C1c1ccco1 (stereo not drawn),,inactive: -2.39%
O=C(c1cc(Cl)cc(Cl)c1)N1CCC(=O)N(C(COCc2ccccc2)Cc2ccccc2)CC1 (stereo not drawn),,inactive: -24.2%
COc1cc([C@H]2Oc3cc([C@H]4Oc5cc(O)cc(O)c5C(=O)[C@@H]4O)ccc3O[C@@H]2CO)ccc1O,,inactive: -13.4%
CCc1ccc(/C=C2/SC(=S)N(CCCC(=O)Nc3ccccc3C(=O)O)C2=O)cc1,,inactive: 4.01%
CC(C)NC(=O)NC(=O)COC(=O)c1c2c(nc3ccccc13)CCC2,active: 25.9 µM,
O=C1N[C@H](Cc2ccccc2)COC(=O)[C@H](Cc2ccc(F)cc2)CC/C=C/C[C@H]1CC(=O)N(CCO)Cc1ccccc1,,inactive: -24%
COC(C/C=C\C(=O)[C@H](C)OCc1ccccc1)OC,,inactive: -7.4%
c1ccc(CN(CC2=NCCN2)c2ccccc2)cc1,,inactive: -12.7%
OC[C@@H]1CN(Cc2cccc(C(F)(F)F)c2)C[C@H](n2cnc3c(NCc4ccc(F)cc4)ncnc32)O1,active: 20.6 µM,
CC(C)C[C@H]1CNC(=S)N1CC1CCCN1C[C@H](CC(C)C)N1C[C@H](Cc2ccc(O)cc2)N(CC2CCCCC2)C1=S (stereo partly drawn),,inactive: -23.6%
Cc1cc(NC(=O)CSc2nc(C(C)C)nc3ccccc23)no1,active: 16.4 µM,
CC(C)(C)NC(=O)C(c1ccncc1)n1c(-c2ccc(C(F)(F)F)cc2)nc2ccccc21 (stereo not drawn),active: 20.6 µM,
CC(=O)SC1CC2=CC(=O)CCC2(C)C2CCC3(C)C(CCC34CCC(=O)O4)C12 (stereo not drawn),,inactive: -22.8%

SMILES,Potency,"activity, negative = toxicity"
C=CC[C@@H](CC(=O)N[C@H](CO)Cc1ccccc1)C(=O)NC[C@@H](OC(=O)[C@@H](CC=C)Cc1ccc(F)cc1)c1ccccc1,,inactive: -5.76%
CC(C)[C@H](NC(=O)N1c2ccccc2NC(=O)[C@@H]1C(C)C)C(=O)N[C@H](C(=O)O)c1ccccc1,,inactive: -6.01%
Cc1nc(N2CCN(C)CC2)c2c(C)c(C(=O)Nc3ccc(C)c(F)c3)sc2n1,active: 14.1 µM,
CCO[C@H]1OC(C(=O)NCc2ccccc2)=C[C@@H](c2ccc(C(F)(F)F)cc2)[C@@H]1CCCO,,inactive: -16.5%
O=C(CSc1cccc[n+]1[O-])Nc1ccccc1Oc1ccccc1,active: 6.51 µM,
CN(C)/C=C1\C=C(c2ccccc2)OC1=O,,inactive: 3.26%
CN(C)C(=O)Oc1cccc([N+](C)(C)C)c1,,inactive: 2.79%
COc1ccc(C(CC(=O)c2ccc(C)cc2)C(C#N)C#N)cc1OC (stereo not drawn),active: 23.1 µM,
COC(=O)N[C@@H]1C[C@H]2[C@@H]3CC[C@H]4C[C@@H](OC)CC[C@]4(C)[C@H]3CC[C@]12C,,inactive: -2.79%
CC1(C)OC2CC3C4CC(F)C5=CC(=O)C=CC5(C)C4(F)C(O)CC3(C)C2(C(=O)CO)O1 (stereo not drawn),,inactive: 34.9%
CCN1CCN(CCNC(=O)c2ccc3c(c2)N(Cc2ccc(F)cc2)C(=O)/C(=C/c2ccccc2)S3)CC1,active: 5.17 µM,
CC1=CC(C)(C)Nc2ccccc21,,inactive: 3.66%
COc1ccc([C@@]2(C(C)C)ON(c3ccccc3C(F)(F)F)C2=O)cc1,,inactive: -9.8%
O=C(Nc1ccccc1)/C(=C/c1ccccc1)NC(=O)c1ccco1,,inactive: 2.01%
Cc1cccc(N2CCN(C(=O)c3ccc4[nH]c(C)c(C)c4c3)CC2)c1C,active: 3.66 µM,
COc1ccc(-c2nc3cc(C)ccn3c2NC2CCCCC2)cc1SC1CCCCC1,,inactive: -81.4%
C=CCc1ccccc1OCC(O)CN1CCN(c2ccccc2OC)CC1 (stereo not drawn),,inactive: -25.6%
[O-]/[N+](=C\c1ccc(F)cc1)c1ccccc1,,inactive: 7.2%
COc1ccc([C@H]2C[C@@H](O)[C@H](n3cc(COC(=O)c4ccccc4)nn3)CN2CC2CCCCC2)cc1,,inactive: -26.5%
CCOc1cc(N2CCOCC2)c(OCC)cc1NC(=O)COC(=O)[C@@H]1CCCN1S(=O)(=O)c1ccccc1F,,inactive: -27.8%
O=C(c1ccccc1)c1ccc2nc(-c3ccco3)c(-c3ccco3)nc2c1,active: 18.4 µM,
O=C(NCCc1ccccc1)Nc1nnc([C@H]2C[C@H](O)[C@@H](CO)O2)s1,,inactive: 4.24%

SMILES,Potency,"activity, negative = toxicity"
O=C1NC[C@H](CCCCN2C[C@H](Cc3ccc(O)cc3)N(CCC3CCCCC3)C(=O)C2=O)N(CC2CCCCC2)C1=O,,inactive: 5.52%
CC(C)C[C@H]1CN([C@@H](Cc2ccccc2)CN2CCC[C@@H]2CN2C(=O)C(=O)NC[C@@H]2Cc2ccc(O)cc2)C(=O)C(=O)N1CCc1ccccc1,,inactive: 3.99%
COc1ccc(-c2cc(=O)c3c(O)cc(OC4OC(COC5OC(C)C(O)C(O)C5O)C(O)C(O)C4O)cc3o2)cc1O (stereo not drawn),,inactive: -2.21%
O=C(NCc1ccccc1)C1=C[C@H](c2ccc(C(F)(F)F)cc2)C[C@H](OCc2ccc(CO)cc2)O1,,inactive: -9.82%
CC(=C/c1ccco1)/C=N/N1CCN(c2ccccc2)CC1,,inactive: 0.439%
Cc1ccc(OCC(=O)Nc2ccc3c(c2)nc(CCN2CCN(c4ccccn4)CC2)n3C)cc1,active: 20.6 µM,
N#C/C(=C/c1cccs1)c1nc2ccccc2[nH]1,,inactive: -26.1%
O=C(NCc1ccncc1)[C@@H]1CCCN1C(=O)[C@H]1CCCN1C(=O)c1ccccc1,,inactive: -0.29%
CCN(CC)CCOC(=O)c1ccc(NC(=O)CCCN2C(=O)/C(=C/c3cccs3)SC2=S)cc1,,inactive: -28.7%
COc1ccc(/C=C2/SC(c3ccc(C)cc3)=NC2=O)cc1OC,,inactive: -7.1%
O=C(O)c1ccc(NN=CC2=C(N3CCOCC3)/C(=C/c3ccccc3)CC2)cc1,,inactive: -15.1%
Cc1ccc(-c2csc(NC(=O)CSc3nc4ccccc4c(=O)n3CCCN(C)C)n2)cc1,active: 23.1 µM,
C[C@H](CCC(=O)O)[C@H]1CC[C@H]2[C@@H]3CC[C@@H]4C[C@H](O)CC[C@]4(C)[C@H]3C[C@H](O)[C@]12C,inactive,
NC(=O)C1=C[C@H](c2csc3ccccc23)C[C@H](OCc2ccc(CO)cc2)O1,,inactive: -1.44%
Cc1ccc(NC(=S)N/C(=N/S(=O)(=O)c2ccccc2)c2ccccc2)cc1,,inactive: 0.458%
CC1(C)OC(c2ccccc2)=C/C(=C/C=N/NC(=O)c2ccncc2)O1,,inactive: -21.4%
O=C(O)C12C[C@H]3C[C@@H](C1)CC(n1ncc(N4CCN(c5ccccc5)CC4)c(Cl)c1=O)(C3)C2,,inactive: 19.4%
CC(C)C[C@H]1CN(CCCC[C@H]2CNC(=O)C(=O)N2CCc2ccccc2)C(=O)C(=O)N1CCc1ccc(O)cc1,,inactive: 2.43%
O=C(/C=C/c1ccc(Br)cc1)c1ccc(NC(=O)c2ccco2)cc1,,inactive: 12.1%
Cc1cccc(CNC(=O)Nc2nnc([C@@H]3C[C@H](O)[C@@H](CO)O3)s2)c1,,inactive: -1.65%
CN1C(c2ccc(F)cc2)=CS/C1=C(/C#N)c1nnc2n1-c1ccccc1SC2,,inactive: -6.32%
CCn1c(SCC(=O)N/N=C/C=C/c2ccccc2[N+](=O)[O-])nnc1-c1ccccc1,,inactive: -4.1%
